Structures are written as SMILES. In all, about 110,000 compounds were measured (“z-score”: median about -0.1, highest 2% from about 2 on). This is one part of the list.

The record followed here is PubChem BioAssay AID488969 (Vanderbilt High Throughput Screening Facility, 2010).

The test addresses Metabotropic glutamate receptor 8 (Rattus norvegicus) (UniProt P70579). Put plainly: mGluR8 Gi/Go-coupled signaling modulation – cell-based, rat, thallium flux, HTS, primary screen (AID 488969). Particulars: HEK293 rat mGluR8, GIRK (G protein-gated inwardly rectifying potassium channel) thallium flux, FluoZin2; at 10 µM; stronger effect = higher value; submaximal glutamate (EC20) added with thallium.
Sequence of UniProt P70579 (P70579 whole entry, looked up): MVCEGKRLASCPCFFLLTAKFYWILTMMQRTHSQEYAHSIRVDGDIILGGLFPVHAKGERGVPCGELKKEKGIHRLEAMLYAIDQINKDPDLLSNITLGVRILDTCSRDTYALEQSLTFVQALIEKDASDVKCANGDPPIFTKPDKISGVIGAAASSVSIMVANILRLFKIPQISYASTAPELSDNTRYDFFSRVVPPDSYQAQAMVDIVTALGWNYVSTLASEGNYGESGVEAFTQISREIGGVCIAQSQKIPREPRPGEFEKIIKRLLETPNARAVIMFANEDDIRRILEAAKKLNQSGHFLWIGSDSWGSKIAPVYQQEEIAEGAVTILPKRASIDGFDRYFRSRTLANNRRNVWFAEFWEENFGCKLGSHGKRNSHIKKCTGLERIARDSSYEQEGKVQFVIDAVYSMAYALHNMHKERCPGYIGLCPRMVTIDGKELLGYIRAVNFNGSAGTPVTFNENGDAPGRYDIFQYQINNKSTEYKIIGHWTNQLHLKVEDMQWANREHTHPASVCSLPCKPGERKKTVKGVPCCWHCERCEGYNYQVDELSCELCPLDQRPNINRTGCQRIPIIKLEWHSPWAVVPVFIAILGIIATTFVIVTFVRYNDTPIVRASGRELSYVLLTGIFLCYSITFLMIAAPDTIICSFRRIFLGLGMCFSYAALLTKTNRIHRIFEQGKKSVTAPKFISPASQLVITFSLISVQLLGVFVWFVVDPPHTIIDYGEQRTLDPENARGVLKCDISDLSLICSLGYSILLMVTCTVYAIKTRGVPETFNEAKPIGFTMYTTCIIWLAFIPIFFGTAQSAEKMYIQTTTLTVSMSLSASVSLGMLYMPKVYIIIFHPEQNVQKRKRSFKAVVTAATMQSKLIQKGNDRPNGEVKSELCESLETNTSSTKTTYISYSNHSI
In turn, `Cc1ccc(C(=O)NCCn2cc(SCC(=O)Nc3nnc(C)s3)c3ccccc32)cc1` had a z-score of -0.392.

With `O=C(Nc1cccc(-c2nc3ccccc3[nH]2)c1)c1ccco1`, the z-score was -0.153.

`CCc1nn2cc(C(=O)c3cc(C)ccc3O)cnc2c1-c1ccc(F)cc1` returned a z-score of -0.233.

The compound `c1ccc(C[n+]2c(-c3ccccc3)csc2Nc2ccccc2)cc1` gave a z-score of 0.0215.

In turn, `COc1ccc(NC(=O)CSc2nnc(CNC(=O)COc3ccc(Cl)cc3)o2)c(OC)c1` had a z-score of 0.364.

Take `CCCCOc1ccc(-c2csc(N)n2)cc1[N+](=O)[O-]`: the z-score was determined as 0.438.

As for `Fc1ccccc1/C=N/n1cnnc1`, the z-score was -0.117.

For `CCOC(=O)/C(C#N)=C/c1ccc(OCC(=O)Nc2ccc(C)c(C)c2)c(OC)c1`, the z-score stood at 0.0303.

In the case of `CCCCC(NS(=O)(=O)c1ccc(C)cc1)C(=O)Oc1ccc2c3c(c(=O)oc2c1)CCC3` (stereo unspecified), the z-score is -0.0734.

As to `COc1ccc2c(c1)sc(N)[n+]2Cc1cc(C)cc2cccnc12`, the z-score stood at 0.488.

Regarding `CC(=O)N=C1SC2CS(=O)(=O)CC2N1c1ccc(-c2nc3ccc(C)cc3s2)cc1` (stereo unspecified), the z-score was 0.0589.

For the compound `CCOc1cc(C)c(C(C)C)cc1S(=O)(=O)N1CC(C)OC(C)C1` (stereo unspecified), the z-score is 0.134.

Compound `Cc1ccc(S(=O)(=O)/C(C#N)=C/c2c[nH]c3ccccc23)cc1` registered a z-score of -0.538.

With `COc1ccccc1C(=O)Nc1ccc(N2CCCCC2)cc1`, the z-score was -0.274.

For `COc1ccc(NC(=S)N/N=C2\CC(C)(C)Oc3ccc(O)cc32)cc1`, the z-score came to 1.79.

In the case of `CCOC(=O)C1CCN(S(=O)(=O)c2ccc3c4c(cccc24)C(=O)N3)CC1`, the z-score worked out at 0.103.

`CCOC(=O)c1cc(CC)sc1NC(=O)COC` had a z-score of -2.4.

On to `Cc1nc(NC(=O)CSc2nnc(-c3ccccc3)c(-c3ccccc3)n2)c(Cl)cc1Cl`, for which the z-score is -0.0779.

Compound `CCCC1CC(=O)OC1(C)C(=O)CSc1n[nH]c(-c2ccccc2)n1` (stereo unspecified) showed a z-score of -1.1.

In turn, `Cc1ccc(C(=O)O/N=C\c2ccc(N3CCCCC3)c([N+](=O)[O-])c2)cc1` displayed a z-score of 0.106.

On to `COc1ccc(Cl)cc1-c1n[nH]c(=S)n1C1CCCCC1`, for which the z-score is 1.13.

With `COc1cccc(OCc2nc3ccccc3c(=O)n2N)c1`, the z-score was found to be 0.478.

For `Cn1cc(S(=O)(=O)Nc2cccc(F)c2)c(=O)n(C)c1=O`, the z-score came out at 0.175.

In turn, `CC(C)(C)NC(=O)c1cccc(NC(=O)CSc2ccccc2)c1` returned a z-score of -0.313.

`CC(=O)NS(=O)(=O)c1ccc(N=c2ssc3c2-c2ccc(C)cc2NC3(C)C)cc1` returned a z-score of 0.411.

`O=C(/C=C/c1c[nH]c2ccccc12)c1cccc2ccccc12` yielded a z-score of -0.225.

Turning to `Cc1nc2c([nH]c3ccc(Br)cc32)s1`, the z-score was -0.064.

With `COc1ccc(Cl)cc1NC(=O)N1CCN(CCc2ccccc2)CC1`, the z-score was -1.75.

The compound `Cc1ccc(C)c(Sc2ccc(NC(=O)CCl)cc2)c1` displayed a z-score of 0.743.

`N#C/C(=C\c1c(N2CCC(C(N)=O)CC2)nc2ccccn2c1=O)C(=O)NCc1ccco1`: the z-score is -0.0915.

In turn, `COC(=O)c1ccc(NC(=S)N2CCC(C(N)=O)CC2)cc1` returned a z-score of -0.143.

For `CCC1CCCCN1c1nc2c(C=O)c(C)nn2c2ccccc12` (stereo unspecified), the z-score is -0.289.

The compound `Clc1ccc(-n2ncc3c(NCc4cccs4)ncnc32)cc1` registered a z-score of -0.31.

As to `COc1ccc(CNC(=O)COC(=O)CCOc2ccccc2)cc1`, the z-score is -0.373.

The compound `O=C(N/N=C\c1ccc(-c2ccc([N+](=O)[O-])cc2)o1)C1COc2ccccc2O1` (stereo unspecified) yielded a z-score of -0.262.

The compound `Cc1cc(OCC(=O)Nn2cnnc2)c(C)cc1Br` had a z-score of 0.279.

In the case of `O=C1CCCC2=C1C(c1cccs1)Nc1ccccc1N2` (stereo unspecified), the z-score is -0.235.

On to `CCOc1ccc(NC(=O)c2cccs2)c([N+](=O)[O-])c1`, for which the z-score was -0.331.

`CS(=O)(=O)Nc1cccc(C(=O)CC2(O)C(=O)Nc3ccc(Br)cc32)c1` (stereo unspecified) gave a z-score of -0.938.

As for `COCCCn1nnnc1SCC(=O)Nc1nc(C)c(C)s1`, the z-score was 0.0827.

Compound `O=C(CSCCc1ccccn1)Nc1cccnc1` showed a z-score of -0.27.

In turn, `Cc1ccccc1Cn1cc(NC(=O)COc2ccccc2)cn1` yielded a z-score of -0.325.

`CCN1CCN(C(c2cccs2)C(C)NS(=O)(=O)c2ccc(Br)cc2)CC1` (stereo unspecified) returned a z-score of -0.233.

`O=C(NCCC1=CCCCC1)c1ccc(Cl)c(S(=O)(=O)Nc2ccccc2)c1` showed a z-score of -0.0923.

With `O=C(NNC(=O)c1ccco1)c1ccccc1`, the z-score is -0.181.

Regarding `O=C(Nc1nnc(SCC(=O)N2CCCCC2)s1)c1cccs1`, the z-score is 0.0108.

Consider `CC(C)Cn1c(-c2cccs2)nc2nc3ccccc3nc21`, for which the z-score is -0.713.

For the compound `CC1CCc2c(sc3nc(CSc4n[nH]c(N)n4)[nH]c(=O)c23)C1` (stereo unspecified), the z-score was -0.252.

In the case of `Cc1cc(NC(=O)Nc2ccc(F)c(Cl)c2)no1`, the z-score was -0.2.

For the compound `O=C(Cn1nc(-c2cccc([N+](=O)[O-])c2)c2ccccc2c1=O)Nc1cccnc1`, the z-score amounted to 1.49.

`N#Cc1c(-c2ccccc2)nc(N2CCCCCC2)[nH]c1=O`: the z-score worked out at 0.0595.

For the compound `Clc1ccc(Oc2nc(N3CCOCC3)nc(N3CCOCC3)n2)c(C2CCCCC2)c1`, the z-score is -0.219.

Compound `CN(CC(=O)Nc1ccncc1)S(=O)(=O)c1ccc(Br)cc1` displayed a z-score of -0.284.

On to `O=C(CCSc1ccc(F)cc1)Nc1ccc(-n2cnnn2)cc1`, for which the z-score is -0.733.

Compound `COc1cc2c3nnc(-c4ccc(F)cc4)c-3cn(Cc3ccc(F)cc3)c2cc1OC` yielded a z-score of 0.162.

`O=C(CSc1nnc(Nc2ccccc2)s1)Nc1ccc(S(=O)(=O)N2CCOCC2)cc1` registered a z-score of -0.14.

For `C=CCn1c(C(C)NC(=O)CC)nc2ccccc21` (stereo unspecified), the z-score amounted to 0.484.

Take `Cc1ccc2cc(CN(Cc3ccccc3)Cc3nnnn3C3CCCC3)c(=O)[nH]c2c1`: the z-score was -0.46.

Compound `Cc1nnc(SCC(=O)Nc2nsc(-c3ccccc3)n2)s1` came in with a z-score of 0.196.

Take `CCOc1cc(CNc2ccc3cn[nH]c3c2)ccc1OC`: the z-score was -0.245.

With `Cc1cc(C(=O)N/N=C/c2ccc(Cl)c([N+](=O)[O-])c2)c(C)n1-c1ccc(F)cc1`, the z-score is -0.561.

As for `COc1ccc(-c2noc(-c3cc4ccccc4oc3=O)n2)cc1`, the z-score was 0.464.

With `c1ccc(CN=C2NN=C(c3cc4ccccc4o3)CS2)cc1`, the z-score stood at 0.253.

For the compound `O=C(Nc1ccccc1)N1CCCCC1c1cccnc1` (stereo unspecified), the z-score was -0.291.

Compound `N/C(=N\OC(=O)COc1ccccc1Cl)c1ccc(Cl)cc1` gave a z-score of -0.273.

Compound `COc1ccc(NC(=O)C(NS(=O)(=O)c2ccc3c(c2)CCCN3C(C)=O)C(C)C)c(OC)c1` (stereo unspecified) displayed a z-score of -0.321.

`O=C1S/C(=C\C=C\c2ccco2)C(=O)N1c1ccccc1` yielded a z-score of -0.214.

`C/C(=N\NC(=O)c1nonc1N)c1cccs1` registered a z-score of 0.127.

In turn, `Cc1[nH]n(-c2cccc(Cl)c2)c(=O)c1-c1ccc(Cl)cc1` registered a z-score of -0.719.

Compound `CCN(CC(=O)NC1CCS(=O)(=O)C1)S(=O)(=O)c1ccc2ccccc2c1` (stereo unspecified) gave a z-score of -0.0621.

`O=C(Cc1ccc(Cl)cc1)NNc1c(F)c(F)cc(F)c1F` had a z-score of -0.451.

`COc1cccc(Nc2nnc(SCc3nc4ccccc4s3)s2)c1` registered a z-score of 0.163.

Compound `O=C(COC(=O)/C=C/c1ccc(Cl)cc1)Nc1ccccc1-c1ccccc1` returned a z-score of -0.364.

Compound `O=C(/C=C/c1ccccc1)NNC(=O)C1CC1` gave a z-score of 0.633.

`CC(=O)Oc1ccc(C(=O)[C@H]2[C@H]3C(=O)N(c4ccc5ccccc5c4)C(=O)[C@H]3[C@@H]3C=CC=NN32)cc1` gave a z-score of -0.0576.

In turn, `COc1ccc(C2C(C(C)=O)=C(O)C(=O)N2CCc2c[nH]c3ccccc23)cc1OC` (stereo unspecified) displayed a z-score of 0.0523.

In turn, `CCC(=O)Nc1ccc(C(=O)N/N=C/c2ccc([N+](=O)[O-])cc2)cc1` gave a z-score of -0.252.

`CC(C)(C)c1cc(N/C=C\c2nnnn2-c2ccc(Br)cc2)no1` yielded a z-score of 0.0221.

`c1ccc(-c2cc(N3CCOCC3)nc3ccccc23)cc1` gave a z-score of 0.00698.

For `Cc1cc(C)n(-c2cc(Oc3ccccc3)ncn2)n1`, the z-score was -0.437.

The compound `CC(=O)Nc1ccc(NC(=O)c2ccccc2F)cc1` yielded a z-score of 0.0771.

Take `Cc1ccc(C(C(=O)NC2CCCCC2)N(Cc2ccco2)C(=O)Cc2c[nH]c3ccccc23)o1` (stereo unspecified): the z-score was -0.9.

Turning to `COC(=O)Oc1ccc(/C=C/C(=O)OC(C)C)cc1OC(=O)OC`, the z-score was -0.306.

Compound `Cc1cc(C)c(NC(=O)CSc2nnc(-c3ccco3)n2N)c(C)c1` registered a z-score of 0.105.

The compound `CSC(=S)N(C)C1CCS(=O)(=O)C1` (stereo unspecified) yielded a z-score of 0.018.

Take `S=c1[nH]ncn1/N=C/c1ccccn1`: the z-score was -0.282.

Turning to `Cc1cccc(-c2nnc(SCc3ccc(C#N)cc3)n2Cc2ccco2)c1`, the z-score was -0.975.

In turn, `CN(C)C=Nc1nonc1-c1ncn[nH]1` yielded a z-score of 0.1.

The compound `O=C(CCN1C(=O)C2C3C=CC(C3)C2C1=O)NCC1CCCO1` (stereo unspecified) had a z-score of 0.128.

As to `COC(=O)c1ccc(NC(=O)CN(C2CCCCC2)S(C)(=O)=O)cc1`, the z-score stood at 0.505.

Take `CCN(CC)c1ccc(/C=N/NC(=O)Cc2cccs2)cc1`: the z-score is 0.753.

Consider `O=C(CCCN1C(=O)/C(=C/c2ccccc2Cl)SC1=S)NNC(=O)c1ccccc1`, for which the z-score is -0.142.

As for `O=C(CSc1nc2c(c(=O)n1-c1ccc(Br)cc1)SCC2)Nc1nccs1`, the z-score was -0.478.

Compound `Cc1ccc(O)c(C2=NCCNC(C(F)(F)F)=C2)c1` yielded a z-score of -0.194.

Take `Cc1c(NC(=O)c2ccc3c(c2)OCO3)c(=O)n(-c2ccccc2)n1C`: the z-score was -0.395.

In the case of `Clc1cc(Br)ccc1OCCN1CCOCC1`, the z-score is -0.189.

For the compound `C/C(=N\N=C(/N)SC1CC(=O)N(c2ccccc2)C1=O)c1cccs1` (stereo unspecified), the z-score amounted to 0.263.

`COc1cccc(/C=C/C(=O)c2ccc[nH]2)c1` had a z-score of -1.02.

`Cc1ccc(S(=O)(=O)N(Cc2ccc(Cl)cc2)c2ccccc2C(=O)NCc2ccco2)cc1`: the z-score was -0.281.

The compound `COc1ccc(OC)c(N=c2oc3cc(O)ccc3cc2C(N)=O)c1` yielded a z-score of 1.99.

The compound `COc1ccccc1NCC(=O)N/N=C/C=C/c1ccccc1` gave a z-score of 0.166.

In turn, `Cc1[nH]nc2oc(=O)c(CCO)c(C)c12` came in with a z-score of -0.549.

`Cc1cccc(NC(=O)CN(C)S(=O)(=O)c2cccc3nsnc23)c1C` registered a z-score of -0.0306.

`CCC(C)NC(=O)c1ccccc1NC(=O)COc1ccc(OC)cc1` (stereo unspecified) registered a z-score of 1.54.

Consider `CCCCNC(=O)/C=C1\Sc2ccccc2NC1=O`, for which the z-score was -0.0224.

Compound `O=C(CSc1nc(O)cc(=O)n1-c1ccccc1)NC1CCCCC1` had a z-score of -0.229.

Compound `Cc1no[n+]([O-])c1COc1ccc(/C=N/n2nnnc2N)cc1` returned a z-score of -0.265.

`COc1ccc(C(=O)Sc2ccc(Cl)cc2)cc1OC`: the z-score amounted to 0.264.

Turning to `O=C(N/N=C/c1ccc(Br)cc1)c1ccccc1-n1cccc1`, the z-score was -0.629.

`Cc1c(C=O)c2ccccn2c1C(=O)c1ccccc1` returned a z-score of -0.165.

In turn, `CCOC(=O)C1C(c2ccc(O)c(O)c2)NC(=S)NC1(O)C(F)(F)F` (stereo unspecified) had a z-score of -0.0911.
